The text below walks through data of PubChem BioAssay (NCI).

Each structure is given as a SMILES string.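 Results reflect a 48-hour exposure of cells in 96-well plates to compound at five concentrations. Abbreviation: GI50, concentration required for 50% inhibition of growth. TGI marks complete inhibition of growth.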

For the assay, the system named is NCI-H322M lung. The assay can be described thus: NCI tumour cell line growth inhibition, 48 h.
`O=C(CNc1nc(-c2ccccc2)cs1)Nc1ccc(Cl)cc1`: the GI50 is 1.28 µM and the TGI stood at 2.54 µM.
The corresponding values for `Cc1ccccc1Nc1nnc(-c2c[nH]c3ccccc23)o1` are 6.12 µM and > 100 µM.
The corresponding values for `O=C(Cc1ccc2c(c1)CN(C1CCC(=O)NC1=O)C2=O)NCCc1ccccc1` (stereo not given) are 0.047 µM and 5.77 µM.
For the compound `Cn1cc(NC(=O)c2cc(NC(=O)c3ccc(C#Cc4ccccc4)cc3)cn2C)cc1C(=O)NCCCN1CCOCC1`, the GI50 was > 32.5 µM and the TGI was > 32.5 µM.
As to `CCN1C(=O)N(CC)C2NNC(Sc3c(C(=O)O)c4ccccc4n(CCC(C)C)c3=O)=NC21` (stereo not given), the GI50 is 6.03 µM and the TGI came out at 30.1 µM.
